Measured values: PMC9911399, “Two distinct binding modes provide the RNA-binding protein RbFox with extraordinary sequence specificity”
Changes are numbered by the printed parent chain; changes in the protein carry UniProt numbers. Some of the results follow.

T1: RBFOX1 RRM (Homo sapiens, UniProt Q9NWB1 109-208)
T1 sequence: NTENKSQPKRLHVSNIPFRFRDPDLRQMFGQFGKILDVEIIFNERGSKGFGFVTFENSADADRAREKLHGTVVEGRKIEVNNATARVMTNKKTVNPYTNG

B1: AAUGCAC (DNA:RNA)
RNA: GGGAGACCGGAAUUCAGAUUGUCCAAUGCACUUAAAUCCCGUCGUAGCCACCA
DNA 1: CAATCTGAATTCCGGTCTCCC
DNA 2: TGGTGGCTACGACGGGATT
B2: CUGGGCA (DNA:RNA)
RNA: B1 RNA with A25C, A26U, U27G, C29G, A30C, C31A
DNA 1: CAATCTGAATTCCGGTCTCCC
DNA 2: TGGTGGCTACGACGGGATT
B3: AAUAAAC (DNA:RNA)
RNA: B1 RNA with G28A, C29A
DNA 1: CAATCTGAATTCCGGTCTCCC
DNA 2: TGGTGGCTACGACGGGATT
B4: UUAGCCA (DNA:RNA)
RNA: B1 RNA with A25U, A26U, U27A, A30C, C31A
DNA 1: CAATCTGAATTCCGGTCTCCC
DNA 2: TGGTGGCTACGACGGGATT
B5: CGUUUGA (DNA:RNA)
RNA: B1 RNA with A25C, A26G, G28U, C29U, A30G, C31A
DNA 1: CAATCTGAATTCCGGTCTCCC
DNA 2: TGGTGGCTACGACGGGATT
B6: CCUUGGA (DNA:RNA)
RNA: B1 RNA with A25C, A26C, G28U, C29G, A30G, C31A
DNA 1: CAATCTGAATTCCGGTCTCCC
DNA 2: TGGTGGCTACGACGGGATT
B7: GCAGUGG (DNA:RNA)
RNA: B1 RNA with A25G, A26C, U27A, C29U, A30G, C31G
DNA 1: CAATCTGAATTCCGGTCTCCC
DNA 2: TGGTGGCTACGACGGGATT
B8: GUCCGGA (DNA:RNA)
RNA: GGGAGACCGGAAUUCAGAUUGUCCGUCCGGAUUAAAUCCCGUCGUAGCCACCA
DNA 1: CAATCTGAATTCCGGTCTCCC
DNA 2: TGGTGGCTACGACGGGATT
B9: AAGGAUU (DNA:RNA)
RNA: B1 RNA with U27G, C29A, A30U, C31U
DNA 1: CAATCTGAATTCCGGTCTCCC
DNA 2: TGGTGGCTACGACGGGATT
B10: CCAACCG (DNA:RNA)
RNA: B1 RNA with A25C, A26C, U27A, G28A, A30C, C31G
DNA 1: CAATCTGAATTCCGGTCTCCC
DNA 2: TGGTGGCTACGACGGGATT
B11: UGGCCCU (DNA:RNA)
RNA: B1 RNA with A25U, A26G, U27G, G28C, A30C, C31U
DNA 1: CAATCTGAATTCCGGTCTCCC
DNA 2: TGGTGGCTACGACGGGATT
B12: GAUUCUG (DNA:RNA)
RNA: B1 RNA with A25G, G28U, A30U, C31G
DNA 1: CAATCTGAATTCCGGTCTCCC
DNA 2: TGGTGGCTACGACGGGATT
B13: CACUUGG (DNA:RNA)
RNA: B8 RNA with G25C, U26A, C28U, G29U, A31G
DNA 1: CAATCTGAATTCCGGTCTCCC
DNA 2: TGGTGGCTACGACGGGATT
B14: GCCGAGG (DNA:RNA)
RNA: B8 RNA with U26C, C28G, G29A, A31G
DNA 1: CAATCTGAATTCCGGTCTCCC
DNA 2: TGGTGGCTACGACGGGATT
B15: UGUCUUC (DNA:RNA)
RNA: B1 RNA with A25U, A26G, G28C, C29U, A30U
DNA 1: CAATCTGAATTCCGGTCTCCC
DNA 2: TGGTGGCTACGACGGGATT
B16: ACAUUCA (DNA:RNA)
RNA: B1 RNA with A26C, U27A, G28U, C29U, A30C, C31A
DNA 1: CAATCTGAATTCCGGTCTCCC
DNA 2: TGGTGGCTACGACGGGATT
B17: AUAAGGG (DNA:RNA)
RNA: B8 RNA with G25A, C27A, C28A, A31G
DNA 1: CAATCTGAATTCCGGTCTCCC
DNA 2: TGGTGGCTACGACGGGATT
B18: GGUCGGA (DNA:RNA)
RNA: B8 RNA with U26G, C27U
DNA 1: CAATCTGAATTCCGGTCTCCC
DNA 2: TGGTGGCTACGACGGGATT
B19: UAACACC (DNA:RNA)
RNA: B1 RNA with A25U, U27A, G28C, C29A, A30C
DNA 1: CAATCTGAATTCCGGTCTCCC
DNA 2: TGGTGGCTACGACGGGATT
B20: UGUAGCU (DNA:RNA)
RNA: B1 RNA with A25U, A26G, G28A, C29G, A30C, C31U
DNA 1: CAATCTGAATTCCGGTCTCCC
DNA 2: TGGTGGCTACGACGGGATT
B21: GCGGAAG (DNA:RNA)
RNA: B1 RNA with A25G, A26C, U27G, C29A, C31G
DNA 1: CAATCTGAATTCCGGTCTCCC
DNA 2: TGGTGGCTACGACGGGATT
B22: UGGCUCG (DNA:RNA)
RNA: B8 RNA with G25U, U26G, C27G, G29U, G30C, A31G
DNA 1: CAATCTGAATTCCGGTCTCCC
DNA 2: TGGTGGCTACGACGGGATT
B23: AAAAUCU (DNA:RNA)
RNA: B1 RNA with U27A, G28A, C29U, A30C, C31U
DNA 1: CAATCTGAATTCCGGTCTCCC
DNA 2: TGGTGGCTACGACGGGATT
B24: CCACAUC (DNA:RNA)
RNA: B1 RNA with A25C, A26C, U27A, G28C, C29A, A30U
DNA 1: CAATCTGAATTCCGGTCTCCC
DNA 2: TGGTGGCTACGACGGGATT
B25: CAUGGGU (DNA:RNA)
RNA: B1 RNA with A25C, C29G, A30G, C31U
DNA 1: CAATCTGAATTCCGGTCTCCC
DNA 2: TGGTGGCTACGACGGGATT
B26: GAAAGUG (DNA:RNA)
RNA: B8 RNA with U26A, C27A, C28A, G30U, A31G
DNA 1: CAATCTGAATTCCGGTCTCCC
DNA 2: TGGTGGCTACGACGGGATT
B27: CGAGCUG (DNA:RNA)
RNA: B1 RNA with A25C, A26G, U27A, A30U, C31G
DNA 1: CAATCTGAATTCCGGTCTCCC
DNA 2: TGGTGGCTACGACGGGATT
B28: UAGUCGU (DNA:RNA)
RNA: B1 RNA with A25U, U27G, G28U, A30G, C31U
DNA 1: CAATCTGAATTCCGGTCTCCC
DNA 2: TGGTGGCTACGACGGGATT
B29: AUGCGUU (DNA:RNA)
RNA: B8 RNA with G25A, C27G, G30U, A31U
DNA 1: CAATCTGAATTCCGGTCTCCC
DNA 2: TGGTGGCTACGACGGGATT
B30: UGACGUG (DNA:RNA)
RNA: B8 RNA with G25U, U26G, C27A, G30U, A31G
DNA 1: CAATCTGAATTCCGGTCTCCC
DNA 2: TGGTGGCTACGACGGGATT
B31: ACUGCGA (DNA:RNA)
RNA: B1 RNA with A26C, A30G, C31A
DNA 1: CAATCTGAATTCCGGTCTCCC
DNA 2: TGGTGGCTACGACGGGATT

Target: T1, RBFOX1 RRM
Assay: EMSA; HiTS-Eq, 1 nM pool, 10 min; buffer printed only for the single-RNA assays: 10 mM Tris pH 7.5, 150 mM NaCl, 3.4 mM EDTA, 0.001% NP-40, 30 C
Conditions: tags: His6 N-terminal (pET28a); label: 5' 32P
Procedure, shortened: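 Purified wild-type or mutant RbFox RRM at increasing concentrations was equilibrated with 1 nM of 5′-radiolabelled RNA carrying 7 randomized nucleotides for 10 min in 50 µL. Unbound RNA was separated by 8% native PAGE and sequenced. Relative association constants came from read-count changes of each RNA species compared with the control reaction, normalised to the cognate motif.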

Binder	binding signal
B1	0.0124 KA relative to UGCAUGU
B2	0.0146 KA relative to UGCAUGU
B3	0.0042 KA relative to UGCAUGU
B4	0.00507 KA relative to UGCAUGU
B5	0.0182 KA relative to UGCAUGU
B6	0.00739 KA relative to UGCAUGU
B7	0.0173 KA relative to UGCAUGU
B8	0.00347 KA relative to UGCAUGU
B9	0.00827 KA relative to UGCAUGU
B10	0.00184 KA relative to UGCAUGU
B11	0.0154 KA relative to UGCAUGU
B12	0.0258 KA relative to UGCAUGU
B13	0.0107 KA relative to UGCAUGU
B14	0.0183 KA relative to UGCAUGU
B15	0.0182 KA relative to UGCAUGU
B16	0.00105 KA relative to UGCAUGU

Binder	binding signal
B17	0.00198 KA relative to UGCAUGU
B18	0.000339 KA relative to UGCAUGU
B19	0.00243 KA relative to UGCAUGU
B20	0.0103 KA relative to UGCAUGU
B21	0.0153 KA relative to UGCAUGU
B22	0.0396 KA relative to UGCAUGU
B23	0.000983 KA relative to UGCAUGU
B24	0.000384 KA relative to UGCAUGU
B25	0.0086 KA relative to UGCAUGU
B26	0.014 KA relative to UGCAUGU
B27	0.0164 KA relative to UGCAUGU
B28	0.017 KA relative to UGCAUGU
B29	0.0153 KA relative to UGCAUGU
B30	0.0227 KA relative to UGCAUGU
B31	0.0107 KA relative to UGCAUGU
